Measurements published in PMC9783754.
Where a chain is given by its changes, count along the chain named. Names and notes keep the numbering of the source. No constants are given. Whether binding was seen depends on the method and setting. Some results given as binding are weak or reduced against the parent protein; the word gives no strength.

By UniProt entry, the sequences of proteins in these tests, tags left out. Where a name states a change or a piece, a line headed by the entry shows the natural chain unless it says otherwise. Chains listed by the source or under a name are the forms on record and can include a tag or linker.
UniProt P31151: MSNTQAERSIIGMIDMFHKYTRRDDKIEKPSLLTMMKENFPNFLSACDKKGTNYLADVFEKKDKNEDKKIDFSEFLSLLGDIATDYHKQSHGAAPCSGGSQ
Recombinant human sTNF (soluble form of tumor necrosis factor) (P01375, form named): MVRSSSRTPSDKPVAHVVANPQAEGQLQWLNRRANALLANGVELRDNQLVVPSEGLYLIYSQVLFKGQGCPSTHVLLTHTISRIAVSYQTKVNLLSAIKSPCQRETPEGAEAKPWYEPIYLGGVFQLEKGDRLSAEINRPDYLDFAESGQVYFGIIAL

B1: Recombinant human S100A11 (protein, UniProt P31949 1-105)
chain: MAKISSPTETERCIESLIAVFQKYAGKDGYNYTLSKTEFLSFMNTELAAFTKNQKDPGVLDRMMKKLDTNSDGQLDFSEFLNLIGGLAMACHDSFLKAVPSQKRT
B2: Recombinant human S100A12 (protein, UniProt P80511 1-92)
chain: MTKLEEHLEGIVNIFHQYSVRKGHFDTLSKGELKQLLTKELANTIKNIKDKAVIDEIFQGLDANQDEQVDFQEFISLVAIALKAAHYHTHKE
B3: Recombinant human S100A13 (protein, UniProt Q99584 1-98)
chain: MAAEPLTELEESIETVVTTFFTFARQEGRKDSLSVNEFKELVTQQLPHLLKDVGSLDEKMKSLDVNQDSELKFNEYWRLIGELAKEIRKKKDLKIRKK
B4: Recombinant human S100A14 (protein, UniProt Q9HCY8 1-104)
chain: MGQCRSANAEDAQEFSDVERAIETLIKNFHQYSVEGGKETLTPSELRDLVTQQLPHLMPSNCGLEEKIANLGSCNDSKLEFRSFWELIGEAAKSVKLERPVRGH
B5: Recombinant human S100A15 (protein, UniProt Q86SG5 1-101)
chain: MSNTQAERSIIGMIDMFHKYTGRDGKIEKPSLLTMMKENFPNFLSACDKKGIHYLATVFEKKDKNEDKKIDFSEFLSLLGDIAADYHKQSHGAAPCSGGSQ
B6: Recombinant human S100A16 (protein, UniProt Q96FQ6 1-103)
chain: MSDCYTELEKAVIVLVENFYKYVSKYSLVKNKISKSSFREMLQKELNHMLSDTGNRKAADKLIQNLDANHDGRISFDEYWTLIGGITGPIAKLIHEQEQQSSS
B7: Recombinant human S100B (protein, UniProt P04271 1-92)
chain: MSELEKAMVALIDVFHQYSGREGDKHKLKKSELKELINNELSHFLEEIKEQEVVDKVMETLDNDGDGECDFQEFMAFVAMVTTACHEFFEHE
B8: Recombinant human S100P (protein, UniProt P25815 1-95)
chain: MTELETAMGMIIDVFSRYSGSEGSTQTLTKGELKVLMEKELPGFLQSGKDKDAVDKLLKDLDANGDAQVDFSEFIVFVAAITSACHKYFEKAGLK
B9: Recombinant human S100A3 (protein, UniProt P33764 1-101)
chain: MARPLEQAVAAIVCTFQEYAGRCGDKYKLCQAELKELLQKELATWTPTEFRECDYNKFMSVLDTNKDCEVDFVEYVRSLACLCLYCHEYFKDCPSEPPCSQ
B10: Recombinant human S100A5 (protein, UniProt P33763 1-92)
chain: METPLEKALTTMVTTFHKYSGREGSKLTLSRKELKELIKKELCLGEMKESSIDDLMKSLDKNSDQEIDFKEYSVFLTMLCMAYNDFFLEDNK
B11: Recombinant human S100A7 (protein, UniProt P31151 1-101)
chain: B5 chain with G22R, G25D, I52T, H53N, T57D, A84T
B12: Recombinant human S100A8 (protein, UniProt P05109 1-93)
chain: MLTELEKALNSIIDVYHKYSLIKGNFHAVYRDDLKKLLETECPQYIRKKGADVWFKELDINTDGAVNFQEFLILVIKMGVAAHKKSHEESHKE
B13: Recombinant human S100A9 (protein, UniProt P06702 1-114)
chain: MTCKMSQLERNIETIINTFHQYSVKLGHPDTLNQGEFKELVRKDLQNFLKKENKNEKVIEHIMEDLDTNADKQLSFEEFIMLMARLTWASHEKMHEGDEGPGHHHKPGLGEGTP

Legend:
[1] = biological target: Recombinant human sTNF (soluble form of tumor necrosis factor) (human) (UniProt P01375); experiment: cross-linking; 4 µM sTNF and/or S100 protein (sTNF to S100 1:0, 0:1, 1:0.5, 1:1, 1:2), 20 mM EDAC and 5 mM sulfo-NHS, 25 °C, 1.5 h; 10 mM HEPES, 150 mM NaCl, pH 7.4 with 1 mM CaCl2; SDS-PAGE with silver staining; both purified
[2] = biological target: T1, Recombinant human TNF-β (human) (UniProt P01374); experiment: SPR; ligand (50 μg/mL sTNF or TNF-β) immobilised on a ProteOn GLH chip by amine coupling; chip flushed with running buffer for two days and several times with 10 mM glycine pH 3.3 to dissociate sTNF multimers (monomeric sTNF); Ca2+-loaded S100 protein as analyte, 10 nM–2 µM; 25 °C; 10 mM HEPES, 150 mM NaCl, 1 mM CaCl2, 0.05% TWEEN 20, pH 7.4; heterogeneous ligand model; both purified
T1 sequence: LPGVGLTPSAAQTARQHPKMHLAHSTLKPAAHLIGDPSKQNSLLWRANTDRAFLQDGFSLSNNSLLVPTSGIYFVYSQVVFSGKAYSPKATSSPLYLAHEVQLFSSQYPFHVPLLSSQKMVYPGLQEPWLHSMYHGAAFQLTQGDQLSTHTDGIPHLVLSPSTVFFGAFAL

[3] = biological target: Recombinant human sTNF (soluble form of tumor necrosis factor) (human) (UniProt P01375); experiment: as above

Binder	binding [1]	binding [2]	binding [3]
B1	binds	no binding (tested: 2 µM)	–
B2	binds	no binding (tested: 2 µM)	–
B3	binds	no binding (tested: 2 µM)	–
B4	–	–	no binding (tested: up to 2 µM; Kd exceed 10^−4 M)
B5	–	–	no binding (tested: up to 2 µM; Kd exceed 10^−4 M)
B6	–	–	no binding (tested: up to 2 µM; Kd exceed 10^−4 M)
B7	–	–	no binding (tested: up to 2 µM; Kd exceed 10^−4 M)
B8	–	–	no binding (tested: up to 2 µM; Kd exceed 10^−4 M)
B9	–	–	no binding (tested: up to 2 µM; Kd exceed 10^−4 M)
B10	–	–	no binding (tested: up to 2 µM; Kd exceed 10^−4 M)
B11	–	–	no binding (tested: up to 2 µM; Kd exceed 10^−4 M)
B12	–	–	no binding (tested: up to 2 µM; Kd exceed 10^−4 M)
B13	–	–	no binding (tested: up to 2 µM; Kd exceed 10^−4 M)
